Results on 90 compounds are retold here after article PMC4336329 (PLoS ONE, 2015).

The whole screen tested about 310,000 compounds, of which about 2,200 (0.71%) showed an effect of 50% or more. The effect is printed as a negative number. Some of the results follow.

The test deals with human ether-à-go-go-related gene (hERG) potassium channel (human, UniProt Q12809). Kind of test: primary screen, population patch clamp on CHO cells stably expressing hERG.
Sequence of human ether-à-go-go-related gene (hERG) potassium channel (Q12809 whole entry, looked up): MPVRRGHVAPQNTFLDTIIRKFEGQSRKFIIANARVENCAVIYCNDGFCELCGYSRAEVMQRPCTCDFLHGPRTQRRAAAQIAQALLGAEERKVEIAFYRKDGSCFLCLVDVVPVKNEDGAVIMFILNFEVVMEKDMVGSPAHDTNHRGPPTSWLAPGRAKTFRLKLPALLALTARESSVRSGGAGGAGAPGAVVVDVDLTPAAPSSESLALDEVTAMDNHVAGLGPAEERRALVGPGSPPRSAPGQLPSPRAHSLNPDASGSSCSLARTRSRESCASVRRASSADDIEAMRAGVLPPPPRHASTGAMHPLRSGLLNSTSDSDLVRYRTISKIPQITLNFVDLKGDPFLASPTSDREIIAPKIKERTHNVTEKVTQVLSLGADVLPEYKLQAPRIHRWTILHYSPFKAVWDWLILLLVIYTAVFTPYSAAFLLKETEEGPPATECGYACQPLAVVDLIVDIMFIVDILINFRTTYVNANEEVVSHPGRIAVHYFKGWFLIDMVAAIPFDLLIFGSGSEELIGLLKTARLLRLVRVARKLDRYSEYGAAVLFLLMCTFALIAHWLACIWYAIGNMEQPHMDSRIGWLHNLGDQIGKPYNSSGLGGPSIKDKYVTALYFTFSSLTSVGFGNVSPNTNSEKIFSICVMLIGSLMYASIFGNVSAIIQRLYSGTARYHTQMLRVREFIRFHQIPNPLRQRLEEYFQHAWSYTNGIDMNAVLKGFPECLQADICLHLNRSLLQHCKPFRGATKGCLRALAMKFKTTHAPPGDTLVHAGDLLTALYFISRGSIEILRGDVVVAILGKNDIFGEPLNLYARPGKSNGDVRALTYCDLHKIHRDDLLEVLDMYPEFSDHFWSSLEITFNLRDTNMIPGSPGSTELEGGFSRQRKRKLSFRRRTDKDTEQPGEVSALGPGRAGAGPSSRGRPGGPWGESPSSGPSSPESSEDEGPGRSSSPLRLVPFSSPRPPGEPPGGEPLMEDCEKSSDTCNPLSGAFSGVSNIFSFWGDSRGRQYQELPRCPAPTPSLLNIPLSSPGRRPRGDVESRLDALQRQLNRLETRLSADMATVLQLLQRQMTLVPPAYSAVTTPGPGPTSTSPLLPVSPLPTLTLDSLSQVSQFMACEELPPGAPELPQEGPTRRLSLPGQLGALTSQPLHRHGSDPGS
With `COc1ccccc1N1CCN(CCCCNC(=O)c2ccc3ccccc3c2)CC1.Cl`, the “hERG current change (%, negative = inhibition) at 1uM” value is -75.8%. With `CN1CCN(CC(=O)Nc2ccc(OCc3ccccc3)cc2)CC1.Cl`, the “hERG current change (%, negative = inhibition) at 1uM” value was determined as 9.44%. For the compound `CC(=O)Cc1nsc(NC(=O)c2ccc(Br)o2)n1`, the “hERG current change (%, negative = inhibition) at 1uM” value turned out to be 12.4%.

Turning to `C=CCn1c(O)c(C(CC)=Nc2ccccc2NC(C)=O)c(=O)[nH]c1=O`, the “hERG current change (%, negative = inhibition) at 1uM” value was -4.37%. In the case of `O=C(Nc1cc(C(=O)N2CCN(c3ccccc3O)CC2)ccc1Cl)c1cccs1`, the “hERG current change (%, negative = inhibition) at 1uM” value is -18.5%. `CC(C)NC(=O)c1ccc2c(c1)N(CC(=O)N1CCCC1)C(=O)C(C)(C)O2`: the “hERG current change (%, negative = inhibition) at 1uM” value is listed as 5.9%.

With `Cc1ccc(NC(=O)CSc2nnc(-c3ccco3)o2)c(C)c1`, the “hERG current change (%, negative = inhibition) at 1uM” value is on record as 17.5%. Then `CCC(=O)NC(C)c1cc(Cl)c2cccnc2c1O` (stereo not drawn), with 14.8%; and `CCCCCCCCNC(=O)c1cnsn1`, with -1.95%. The value for `CCCCC(=O)NNC(=S)NC(=O)C(c1ccccc1)c1ccccc1` was 12.3%. Then `O=C1CC(/C=C/c2ccc([N+](=O)[O-])cc2)=Nc2ccccc2N1`, with -1.54%; and `O=c1c2c3c(sc2nc(NCCO)n1CCc1ccccc1)CCCCC3`, with 7.46%. Take `CC(=O)C1=C(C)NC(SCC(=O)c2cc(Cl)ccc2Cl)=C(C#N)C1c1ccco1` (stereo not drawn): the “hERG current change (%, negative = inhibition) at 1uM” value came out at 11.1%. Take `CCOc1ccccc1N(CC(=O)O)S(=O)(=O)c1ccccc1`: the “hERG current change (%, negative = inhibition) at 1uM” value is 30.2%.

`COc1ccc(Cl)cc1NC(=O)C1CCCN(S(C)(=O)=O)C1` (stereo not drawn): the “hERG current change (%, negative = inhibition) at 1uM” value is on record as 11.7%. In the case of `CC1=C(C(=O)Nc2ccc(Cl)cc2)C(c2ccco2)NC(=O)N1` (stereo not drawn), the “hERG current change (%, negative = inhibition) at 1uM” value worked out at 14.4%. Then `COc1ccc(C(=O)NCC(=O)N/N=C(\C)Cc2ccccc2)cc1`, with 16.1%; and `COc1cccc(C(=O)NNC(=O)c2ccccc2-n2cccc2)c1`, with 22.8%; and `COc1ccc(N2C(=O)C(=O)/C(=C(/O)c3ccc(C)cc3)C2c2cccnc2)cc1` (stereo not drawn), with -3.2%.

Turning to `CCc1ccc2c(c1)C(=O)C(=O)N2CC(=O)Nc1ccc(NC(=O)c2ccccn2)cc1`, the “hERG current change (%, negative = inhibition) at 1uM” value is listed as 11.5%. The value for `Oc1oc(-c2ccc(Br)cc2)nc1/C=N/c1ccccn1` was 4.27%; that for `CCn1c(SCC(=O)Nc2nccs2)nnc1-c1ccc(C)cc1` was -4.92%; that for `O=c1cc(-c2ccc(O)cc2)oc2ccc(O)cc12` was 5.62%. Then `CCC1CCCCN1C(=O)CCCc1ccccc1` (stereo not drawn), with 8.6%; and `CCOC(=O)CSc1nc(Nc2ccc3c(c2)OCO3)c2ccccc2n1`, with -1.81%. On to `Cc1ccc(NC(=O)O/N=C2\CCCCC2c2ccc([N+](=O)[O-])cc2[N+](=O)[O-])cc1` (stereo not drawn), for which the “hERG current change (%, negative = inhibition) at 1uM” value is reported as -9.22%. For the compound `COc1ccc(S(=O)(=O)NCC(=O)N(CC(=O)NCC2CCCO2)Cc2ccccc2)cc1` (stereo not drawn), the “hERG current change (%, negative = inhibition) at 1uM” value came out at 10.4%. Then `COCCn1c(-c2ccc(C)cc2)nc2oc3cc(OC)ccc3c(=O)c2c1=O`, with 15%.

As to `CCOC(=O)C1=C(NC#N)OC(C)=C(C)C1c1ccc(O)cc1` (stereo not drawn), the “hERG current change (%, negative = inhibition) at 1uM” value was determined as 9.41%. As for `CN1CCN(C(=O)COCc2cc(-c3ccc4c(c3)OCO4)on2)CC1`, the “hERG current change (%, negative = inhibition) at 1uM” value was found to be 13%. Then `COc1ccc(NC2=NC(=S)N(c3cccc(C)c3)C23CCCCC3)cc1`, with 2.15%; and `CCCNc1nc2c(c(=O)n(C)c(=O)n2C)n1CCC(C)C`, with 3.46%; and `CCn1cc(C(=O)O)c(=O)c2cnc(N3CCNCC3)nc21`, with -47.7%. Consider `O=C(CCn1c(=S)[nH]c2cc3c(cc2c1=O)OCO3)NCc1ccccc1Cl`, for which the “hERG current change (%, negative = inhibition) at 1uM” value is on record as 14.3%.

For `Cc1nc(C(=O)Nc2ccc(F)cc2)nn1-c1ccc([N+](=O)[O-])cc1`, the “hERG current change (%, negative = inhibition) at 1uM” value is -33.8%. For `CC(C)CCNC(=O)c1ccc(Cl)c(N)c1`, the “hERG current change (%, negative = inhibition) at 1uM” value was found to be 9.97%. The value for `COc1ccc(-c2csc(C)n2)cc1OC` was -0.0122%; that for `COc1ccc(C(=O)Nc2cnn(Cc3ccc(Cl)cc3)c2)cc1OC` was -6.73%; that for `CCCCCCCOc1ccc(C(=O)Nc2cccnc2)cc1` was 16.1%. In the case of `CN(CC(=O)Nc1ccc(F)c(Cl)c1)S(=O)(=O)c1cccc2nsnc12`, the “hERG current change (%, negative = inhibition) at 1uM” value is -11.6%. `COc1ccc(-c2nn(CC(=O)NCCc3ccccc3)c(=S)n2C)cc1`: the “hERG current change (%, negative = inhibition) at 1uM” value is reported as 7.98%. Then `O=C(CSc1nnc(-c2cccs2)n1CC1CCCO1)c1cc2ccccc2o1` (stereo not drawn), with 2.49%. On to `Cc1cccc(Nc2nc(N)nc(CN3CCN(c4ccccc4F)CC3)n2)c1`, for which the “hERG current change (%, negative = inhibition) at 1uM” value was -45.8%. Consider `COc1cc2nc(C3CCC3)n(NC(=O)c3ccco3)c(=O)c2cc1OC`, for which the “hERG current change (%, negative = inhibition) at 1uM” value is recorded as 6.35%.

Regarding `CCSc1ccccc1-c1nc(-c2ccncc2)no1`, the “hERG current change (%, negative = inhibition) at 1uM” value stood at 6.07%. Then `Clc1cc(Cl)cc(Nc2ncn[nH]2)c1`, with -7.88%; and `O=C(c1sc(N2CCOCC2)nc1-c1ccccc1)N1CCCCC1`, with 23.6%. For the compound `COC(=O)c1ccc(Cn2cc(/C=C\[N+](=O)[O-])c3ccccc32)o1`, the “hERG current change (%, negative = inhibition) at 1uM” value amounted to 19.2%. With `CC(=O)c1cc(Cc2csc(C(C)=O)c2)cs1`, the “hERG current change (%, negative = inhibition) at 1uM” value is recorded as 5.44%. For the compound `COC(=O)c1ccc(CSc2nnc(-c3ccncc3)o2)cc1`, the “hERG current change (%, negative = inhibition) at 1uM” value turned out to be 15%. Then `COCC(=O)N1CCC(Oc2ccc(C(=O)N3CCCCCCC3)cc2)CC1`, with 15.3%; and `COc1ccc(CCNC(=O)c2cc(-c3ccccc3OC)on2)cc1OC`, with 5.24%. For `O=[N+]([O-])c1cccc(-c2nnc(-c3ccccc3)o2)c1`, the “hERG current change (%, negative = inhibition) at 1uM” value is 17%. Then `N#CCCSCc1ccc(OCC(=O)O)cc1`, with 5.2%; and `CC1(Cc2cn(CCC#N)c3ccccc23)OCCO1`, with 9.39%.

Turning to `CC(=O)OCCOCn1cnn2c(=O)c(Br)c(C)nc12`, the “hERG current change (%, negative = inhibition) at 1uM” value is 2.99%. The value for `COc1ccc(NC(=O)CSc2nc3[nH]ncc3c(=O)n2-c2ccccc2C)cc1OC` was 10.5%; that for `N#CCC(=O)N/N=C/c1c2ccccc2cc2ccccc12` was 8.78%; that for `Cc1ccccc1NC(=O)Cc1nc(COC(=O)c2cc([N+](=O)[O-])ccc2N)cs1` was -1.61%.

As for `COc1cc(C(=O)NCCC(=O)NC(C)C)cc(OC)c1OC`, the “hERG current change (%, negative = inhibition) at 1uM” value is listed as 11.8%. As to `CCOC(=O)COn1c(=O)c[n+]([O-])c2ccccc21`, the “hERG current change (%, negative = inhibition) at 1uM” value was found to be 4.22%. With `Cc1cc(C)n(-c2ccc(C(=O)OCC(=O)Nc3ccc(Cl)cc3[N+](=O)[O-])cc2)n1`, the “hERG current change (%, negative = inhibition) at 1uM” value is reported as 15.9%. The value for `O=C1C2CC=CCC2C(=O)N1c1nc2n(n1)C(c1ccccc1)CC(c1ccccc1)N2` (stereo not drawn) was -5.26%; that for `COc1cc(C(=O)NCCc2ncccc2C)ccc1OC1CCN(C(C)=O)CC1` was 20.3%; that for `CCOC(=O)CSc1nc(N2CCOCC2)c2c(c1C#N)CC(C)(C)N(C)C2` was -5.97%. Then `CCOC(=O)N/N=C/c1ccc(F)cc1F`, with 16.1%; and `Cc1ccc(C(=O)N2CCc3cc4c(cc3C2C)OCCCO4)cc1` (stereo not drawn), with 17.4%; and `Cc1cc(C(=O)NCc2ccco2)on1`, with 5.08%. The value for `O=C(CCC(=O)Nc1ccccc1Cl)NNC(=O)c1ccco1` was 14.5%; that for `O=C(Nc1nc(-c2ccccc2)cs1)C1COc2ccccc2O1` (stereo not drawn) was 3.26%; that for `COc1ccccc1CN1[C@@H](CC(=O)O)c2cc(F)ccc2S1(=O)=O` was 13.9%. `CN(CC(=O)Nc1ccccc1Cl)C(=O)CSc1nc2ccccc2s1`: the “hERG current change (%, negative = inhibition) at 1uM” value is listed as 12.6%. Then `FC(F)(F)c1ccc(C2NCCc3sccc32)cc1` (stereo not drawn), with -3.93%; and `CCN(CC(=O)Nc1ccc(S(N)(=O)=O)cc1)S(=O)(=O)c1cc(C)ccc1OC`, with 3.66%. The value for `Cc1ccccc1NC(=O)C1CC(Cl)=CCC1C(=O)O` (stereo not drawn) was -13%; that for `CCC1CCCCN1C(=O)c1ccc2nc(Cc3ccc(OC)cc3)oc2c1` (stereo not drawn) was 16%; that for `CC(=O)N1CCCc2cc(S(=O)(=O)N3CCCC3)ccc21` was 9.93%. Then `C=CCN=C(NC#N)SCC(=O)c1cccc(OC)c1`, with 8.31%.

For `Cc1c(NC(=O)c2cnc(Cl)c(Cl)c2)c(=O)n(-c2ccccc2)n1C`, the “hERG current change (%, negative = inhibition) at 1uM” value worked out at 10.8%. `COc1ccc(-c2nc3cc(C)ccn3c2NCC2CCCO2)cc1OC.Cl` (stereo not drawn): the “hERG current change (%, negative = inhibition) at 1uM” value is -55.3%. Regarding `Cc1ccnc(NC(c2ccccc2O)c2oc(CO)cc(=O)c2O)c1` (stereo not drawn), the “hERG current change (%, negative = inhibition) at 1uM” value is recorded as 2.02%. As to `O=C(CNc1ccccc1OC(F)F)N1CCc2ccccc21`, the “hERG current change (%, negative = inhibition) at 1uM” value is 18.8%.

`COc1cc(F)ccc1CN1CCC(n2nccc2NC(=O)C2CCOC2)CC1` (stereo not drawn): the “hERG current change (%, negative = inhibition) at 1uM” value is -5.11%. As to `COc1cc2cc(CN(CCc3ccccc3C)C(=S)NCCCN3CCOCC3)c(=O)[nH]c2cc1OC`, the “hERG current change (%, negative = inhibition) at 1uM” value came out at 12.2%. Consider `COc1cccc(OC)c1/C=C/C(=O)NC1CCCCC1`, for which the “hERG current change (%, negative = inhibition) at 1uM” value was found to be 16.5%. As to `COc1ccc(-c2nc(CN3CCC(C(=O)N4CCOCC4)CC3)c(C)o2)cc1OC`, the “hERG current change (%, negative = inhibition) at 1uM” value is recorded as -2.9%.

As to `CCC(C)c1ccccc1NC(=O)COC(=O)CCc1cc(OC)c(OC)c(OC)c1` (stereo not drawn), the “hERG current change (%, negative = inhibition) at 1uM” value was 3.26%. The value for `Cc1ccc(S(=O)(=O)N2CCCCC2CCNC(=O)C(=O)Nc2ccccc2F)cc1` (stereo not drawn) was 13%; that for `COc1ccc(CCn2nnnc2CN2CCN(C(=O)c3ccco3)CC2)cc1OC` was 7.61%; that for `Cc1cc(=O)oc2cc(OCC(=O)Nc3nnc(CC(C)C)s3)ccc12` was 5.77%.
